Source: the supplement of paper PMC8728848
The other results are listed elsewhere or left out.

Experiments:
Assay in all cases: glycan array binding signal (z-score within array); higher = stronger binding
Settings in all cases: glycan notation: IUPAC condensed, linker removed
[1] = target: Neu5Ac(a2-3)Gal(b1-4)GlcNAc
In short: (§1)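 Glycan array data came from 3228 arrays in the Consortium for Functional Glycomics database, and only arrays with an available protein sequence were kept. Glycan names were put into IUPAC-condensed notation, and columns mapping to the same glycan were averaged. The binding signal is a within-array Z-score, averaged across arrays of one protein sequence run at different concentrations or buffers and across linkers. A negative Z-score can be read as non-binding.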

[2] = target: Neu5Ac(a2-3)Gal(b1-4)GlcNAc(b1-2)Man
In short: as §1

[3] = target: Neu5Ac(a2-3)Gal(b1-4)GlcNAc(b1-2)Man(a1-3)[GlcNAc(b1-4)][Neu5Ac(a2-3)Gal(b1-4)GlcNAc(b1-2)Man(a1-6)]Man(b1-4)GlcNAc(b1-4)GlcNAc
In short: as §1

[4] = target: Neu5Ac(a2-3)Gal(b1-4)GlcNAc(b1-2)Man(a1-3)[Neu5Ac(a2-3)Gal(b1-4)GlcNAc(b1-2)Man(a1-6)]Man(b1-4)GlcNAc(b1-4)GlcNAc
In short: as §1

[5] = target: Neu5Ac(a2-3)Gal(b1-4)GlcNAc(b1-2)Man(a1-3)[Neu5Ac(a2-3)Gal(b1-4)GlcNAc(b1-2)Man(a1-6)]Man(b1-4)GlcNAc(b1-4)[Fuc(a1-6)]GlcNAc
In short: as §1

[6] = target: Neu5Ac(a2-3)Gal(b1-4)GlcNAc(b1-2)Man(a1-3)[Neu5Ac(a2-6)Gal(b1-4)GlcNAc(b1-2)Man(a1-6)]Man(b1-4)GlcNAc(b1-4)GlcNAc
In short: as §1

[7] = target: Neu5Ac(a2-3)Gal(b1-4)GlcNAc(b1-2)[Neu5Ac(a2-3)Gal(b1-4)GlcNAc(b1-2)]Man(a1-6)[Neu5Ac(a2-3)Gal(b1-4)GlcNAc(b1-2)Man(a1-3)][GlcNAc(b1-4)]Man(b1-4)GlcNAc(b1-4)GlcNAc
In short: as §1

[8] = target: Neu5Ac(a2-3)Gal(b1-4)GlcNAc(b1-2)[Neu5Ac(a2-3)Gal(b1-4)GlcNAc(b1-4)]Man(a1-3)[GlcNAc(b1-4)][Neu5Ac(a2-3)Gal(b1-4)GlcNAc(b1-2)[Neu5Ac(a2-3)Gal(b1-4)GlcNAc(b1-6)]Man(a1-6)]Man(b1-4)GlcNAc(b1-4)GlcNAc
In short: as §1

[9] = target: Neu5Ac(a2-3)Gal(b1-4)GlcNAc(b1-2)[Neu5Ac(a2-3)Gal(b1-4)GlcNAc(b1-4)]Man(a1-3)[GlcNAc(b1-4)][Neu5Ac(a2-3)Gal(b1-4)GlcNAc(b1-4)Man(a1-6)]Man(b1-4)GlcNAc(b1-4)GlcNAc
In short: as §1

[10] = target: Neu5Ac(a2-3)Gal(b1-4)GlcNAc(b1-2)[Neu5Ac(a2-3)Gal(b1-4)GlcNAc(b1-6)]Man(a1-6)[Neu5Ac(a2-3)Gal(b1-4)GlcNAc(b1-2)Man(a1-3)]Man(b1-4)GlcNAc(b1-4)GlcNAc
In short: as §1

[11] = target: Neu5Ac(a2-3)Gal(b1-4)GlcNAc(b1-2)[Neu5Ac(a2-3)Gal(b1-4)GlcNAc(b1-6)]Man(a1-6)[Neu5Ac(a2-3)Gal(b1-4)GlcNAc(b1-2)Man(a1-3)][GlcNAc(b1-4)]Man(b1-4)GlcNAc(b1-4)GlcNAc
In short: as §1

[12] = target: Neu5Ac(a2-3)Gal(b1-4)GlcNAc(b1-3)Gal
In short: as §1

[13] = target: Neu5Ac(a2-3)Gal(b1-4)GlcNAc(b1-3)Gal(b1-3)GlcNAc
In short: as §1

[14] = target: Neu5Ac(a2-3)Gal(b1-4)GlcNAc(b1-3)Gal(b1-4)GlcNAc
In short: as §1

[15] = target: Neu5Ac(a2-3)Gal(b1-4)GlcNAc(b1-3)Gal(b1-4)GlcNAc(b1-2)Man(a1-3)[Neu5Ac(a2-3)Gal(b1-4)GlcNAc(b1-3)Gal(b1-4)GlcNAc(b1-2)Man(a1-6)]Man(b1-4)GlcNAc(b1-4)GlcNAc
In short: as §1

[16] = target: Neu5Ac(a2-3)Gal(b1-4)GlcNAc(b1-3)Gal(b1-4)GlcNAc(b1-3)Gal(b1-4)GlcNAc
In short: as §1

[17] = target: Neu5Ac(a2-3)Gal(b1-4)GlcNAc(b1-3)Gal(b1-4)GlcNAc(b1-3)Gal(b1-4)GlcNAc(b1-2)Man(a1-3)[Neu5Ac(a2-3)Gal(b1-4)GlcNAc(b1-3)Gal(b1-4)GlcNAc(b1-3)Gal(b1-4)GlcNAc(b1-2)Man(a1-6)]GalNAc
In short: as §1

[18] = target: Neu5Ac(a2-3)Gal(b1-4)GlcNAc(b1-3)Gal(b1-4)GlcNAc(b1-3)GalNAc
In short: as §1

[19] = target: Neu5Ac(a2-3)Gal(b1-4)GlcNAc(b1-3)Gal(b1-4)GlcNAc(b1-3)[Neu5Ac(a2-3)Gal(b1-4)GlcNAc(b1-3)Gal(b1-4)GlcNAc(b1-6)]GalNAc
In short: as §1

[20] = target: Neu5Ac(a2-3)Gal(b1-4)GlcNAc(b1-3)Gal(b1-4)GlcNAc(b1-6)[Gal(b1-3)]GalNAc
In short: as §1

[21] = target: Neu5Ac(a2-3)Gal(b1-4)GlcNAc(b1-3)Gal(b1-4)[Fuc(a1-3)]GlcNAc
In short: as §1

[22] = target: Neu5Ac(a2-3)Gal(b1-4)GlcNAc(b1-3)GalNAc
In short: as §1

[23] = target: Neu5Ac(a2-3)Gal(b1-4)GlcNAc(b1-3)[Neu5Ac(a2-3)Gal(b1-4)GlcNAc(b1-6)]GalNAc
In short: as §1

[24] = target: Neu5Ac(a2-3)Gal(b1-4)GlcNAc(b1-6)GalNAc
In short: as §1

[25] = target: Neu5Ac(a2-3)Gal(b1-4)GlcNAc(b1-6)[Gal(b1-3)]GalNAc
In short: as §1

[26] = target: Neu5Ac(a2-3)Gal(b1-4)GlcNAc(b1-6)[Neu5Ac(a2-3)Gal(b1-3)]GalNAc
In short: as §1

[27] = target: Neu5Ac(a2-3)Gal(b1-4)GlcNAc6S
In short: as §1

[28] = target: Neu5Ac(a2-3)Gal(b1-4)[Fuc(a1-3)]GlcNAc
In short: as §1

[29] = target: Neu5Ac(a2-3)Gal(b1-4)[Fuc(a1-3)]GlcNAc(b1-2)Man
In short: as §1

[30] = target: Neu5Ac(a2-3)Gal(b1-4)[Fuc(a1-3)]GlcNAc(b1-3)Gal
In short: as §1

[31] = target: Neu5Ac(a2-3)Gal(b1-4)[Fuc(a1-3)]GlcNAc(b1-3)Gal(b1-4)GlcNAc
In short: as §1

[32] = target: Neu5Ac(a2-3)Gal(b1-4)[Fuc(a1-3)]GlcNAc(b1-3)Gal(b1-4)[Fuc(a1-3)]GlcNAc(b1-3)Gal(b1-4)[Fuc(a1-3)]GlcNAc
In short: as §1

[33] = target: Neu5Ac(a2-3)Gal(b1-4)[Fuc(a1-3)]GlcNAc(b1-3)GalNAc
In short: as §1

[34] = target: Neu5Ac(a2-3)Gal(b1-4)[Fuc(a1-3)]GlcNAc(b1-6)[Gal(b1-3)]GalNAc
In short: as §1

[35] = target: Neu5Ac(a2-3)Gal(b1-4)[Fuc(a1-3)]GlcNAc(b1-6)[Neu5Ac(a2-3)Gal(b1-3)]GalNAc
In short: as §1

[36] = target: Neu5Ac(a2-3)Gal(b1-4)[Fuc(a1-3)]GlcNAc6S
In short: as §1

[37] = target: Neu5Ac(a2-3)Gal6S(b1-4)GlcNAc
In short: as §1

[38] = target: Neu5Ac(a2-3)Gal6S(b1-4)[Fuc(a1-3)]GlcNAc
In short: as §1

Neu5Ac(a2-3)GalNAc = target: Neu5Ac(a2-3)GalNAc
In short: as §1

[39] = target: Neu5Ac(a2-3)GalNAc(b1-4)GlcNAc
In short: as §1

[40] = target: Neu5Ac(a2-3)[GalNAc(b1-4)]Gal(b1-4)Glc
In short: as §1

[41] = target: Neu5Ac(a2-3)[GalNAc(b1-4)]Gal(b1-4)GlcNAc
In short: as §1

[42] = target: Neu5Ac(a2-3)[GalNAc(b1-4)]Gal(b1-4)GlcNAc(b1-3)GalNAc
In short: as §1

[43] = target: Neu5Ac(a2-3)[Neu5Ac(a2-6)]GalNAc
In short: as §1

Neu5Ac(a2-6)Gal = target: Neu5Ac(a2-6)Gal
In short: as §1

B1: rMpL (Macrolepiota procera) (protein)
chain: MSTQVSSGRTYKITNVIAGTVIDLSGEDNKSIIGYPYHSGKNQQWTFNWTGKAWTLRSASSGSYLGIEGTPAGGTRLVAVNDPFEWHIWRDEANENAFRIFVPFTNYNLDLSGYGDTTPGTPVQLWWTWEGLHQTWTIDRP
glycan array binding signal (z-score) [1]: -0.817
glycan array binding signal (z-score) [2]: -0.107
glycan array binding signal (z-score) [3]: -0.305
glycan array binding signal (z-score) [4]: -0.386
glycan array binding signal (z-score) [5]: -0.223
glycan array binding signal (z-score) [6]: -0.371
glycan array binding signal (z-score) [7]: -0.349
glycan array binding signal (z-score) [8]: -0.348
glycan array binding signal (z-score) [9]: -0.38
glycan array binding signal (z-score) [10]: -0.276
glycan array binding signal (z-score) [11]: -0.377
glycan array binding signal (z-score) [12]: -0.412
glycan array binding signal (z-score) [13]: -0.359
glycan array binding signal (z-score) [14]: -0.278
glycan array binding signal (z-score) [15]: 0.186
glycan array binding signal (z-score) [16]: -0.383
glycan array binding signal (z-score) [17]: 0.754
glycan array binding signal (z-score) [18]: -0.247
glycan array binding signal (z-score) [19]: -0.021
glycan array binding signal (z-score) [20]: -0.198
glycan array binding signal (z-score) [21]: -0.349
glycan array binding signal (z-score) [22]: -0.329
glycan array binding signal (z-score) [23]: -0.206
glycan array binding signal (z-score) [24]: -0.336
glycan array binding signal (z-score) [25]: -0.258
glycan array binding signal (z-score) [26]: -0.248
glycan array binding signal (z-score) [27]: -0.449
glycan array binding signal (z-score) [28]: -0.32
glycan array binding signal (z-score) [29]: -0.689
glycan array binding signal (z-score) [30]: -0.317
glycan array binding signal (z-score) [31]: -0.208
glycan array binding signal (z-score) [32]: -0.257
glycan array binding signal (z-score) [33]: -0.14
glycan array binding signal (z-score) [34]: -0.201
glycan array binding signal (z-score) [35]: -0.185
glycan array binding signal (z-score) [36]: -0.377
glycan array binding signal (z-score) [37]: -0.355
glycan array binding signal (z-score) [38]: -0.382
glycan array binding signal (z-score) (Neu5Ac(a2-3)GalNAc): -0.431
glycan array binding signal (z-score) [39]: -0.299
glycan array binding signal (z-score) [40]: -0.338
glycan array binding signal (z-score) [41]: -0.443
glycan array binding signal (z-score) [42]: 0.009
glycan array binding signal (z-score) [43]: -0.364
glycan array binding signal (z-score) (Neu5Ac(a2-6)Gal): -0.357
